Assay [1] concerns the target recombinant Fc-tagged whole extracellular portion of human NRP1 (human) (UniProt O14786). As to the kind of experiment: pull-down; 0.1 µg NRP1-Fc or IgG1-Fc on protein G Dynabeads, incubated with 0.5 µg tag-free FL-, mini- or T2-WARS 2 h at 4 °C; washes in 50 mM Tris-HCl, 150 mM NaCl, 1% Triton X-100, 5 mM CaCl2; western blot; both purified.
Assay [2] deals with Neuropilin 1 (endogenous) (human (endogenous in primary umbilical artery ECs)) (UniProt O14786). As to the kind of experiment: co-IP; lysates of unstimulated ECs immunoprecipitated with anti-NRP1 Ab or control non-immune IgGs, western blot with anti-WARS Ab; all proteins endogenous. (In general: In western blotting, separated proteins are transferred to a membrane and probed.)
The target of assay [3] is recombinant Fc-tagged whole extracellular portion of human NRP1 (human) (UniProt O14786). Put plainly: pull-down; 2 µg NRP1-Fc held on agarose-conjugated anti-NRP1 antibody (1 µg) with 2 µg VE-cadherin-Fc or IgG1-Fc alone, 2 h at 4 °C, 25 mM Tris-HCl pH 7.4, 100 mM NaCl, 5 mM CaCl2; western blot; both purified.
Assay [4] concerns the target Neuropilin 1 (endogenous) (human (endogenous in primary umbilical artery ECs)) (UniProt O14786). As to the kind of experiment: co-IP; unstimulated ECs incubated live with mouse mAb to the extracellular domain of NRP1 (R&D MAB3870) or control IgGs for 10 min at 37 °C, lysed (1% NP-40, 150 mM NaCl), protein A/G-Sepharose, western blot; all proteins endogenous.

Chains of the proteins cited; added tags and fusions are not shown. Lines headed by an entry give the natural chain unless they say otherwise; changes in a name come on top. A line that says so, or that is headed by a name, gives the form on record, which may keep a tag or linker. Residues count along the entry.
UniProt O14786: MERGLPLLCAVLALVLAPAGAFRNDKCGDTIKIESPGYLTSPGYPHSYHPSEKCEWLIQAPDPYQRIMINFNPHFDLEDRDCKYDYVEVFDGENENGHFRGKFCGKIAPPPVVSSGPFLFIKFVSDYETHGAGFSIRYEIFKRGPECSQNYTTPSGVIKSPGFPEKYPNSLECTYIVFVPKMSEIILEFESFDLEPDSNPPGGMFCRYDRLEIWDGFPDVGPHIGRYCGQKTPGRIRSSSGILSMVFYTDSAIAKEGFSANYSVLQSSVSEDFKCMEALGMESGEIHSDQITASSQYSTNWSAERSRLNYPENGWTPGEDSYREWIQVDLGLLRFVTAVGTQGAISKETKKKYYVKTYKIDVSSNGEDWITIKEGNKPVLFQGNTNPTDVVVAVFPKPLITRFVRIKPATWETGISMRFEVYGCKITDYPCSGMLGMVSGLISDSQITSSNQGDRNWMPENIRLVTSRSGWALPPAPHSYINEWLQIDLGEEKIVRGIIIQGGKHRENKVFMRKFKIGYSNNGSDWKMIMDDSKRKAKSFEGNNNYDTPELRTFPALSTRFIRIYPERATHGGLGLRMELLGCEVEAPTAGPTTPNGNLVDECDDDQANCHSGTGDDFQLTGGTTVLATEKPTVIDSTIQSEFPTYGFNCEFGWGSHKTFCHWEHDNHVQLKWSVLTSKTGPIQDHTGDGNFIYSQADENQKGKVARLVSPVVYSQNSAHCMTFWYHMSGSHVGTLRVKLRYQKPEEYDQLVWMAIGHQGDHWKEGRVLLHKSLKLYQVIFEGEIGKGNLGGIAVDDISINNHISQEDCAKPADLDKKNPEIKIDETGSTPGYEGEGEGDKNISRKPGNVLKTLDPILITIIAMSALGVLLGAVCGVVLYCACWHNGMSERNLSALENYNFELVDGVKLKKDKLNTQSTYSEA
Neuropilin 1 (endogenous) (human (endogenous in primary umbilical artery ECs)): residues 22-923 of O14786
recombinant Fc-tagged whole extracellular portion of human NRP1: residues 22-856 of O14786

These are yes or no findings as the source states them, for the method shown. For some assays here: Binding seen in cells or lysates may run through a third protein. Some entries that bind do so weakly or less than the wild type. For some assays here: Tags and fused reporters may be left off the sequences shown.

B1: recombinant purified tag-free human FL-WARS (enzyme, UniProt P23381 1-471)
chain: MPNSEPASLLELFNSIATQGELVRSLKAGNASKDEIDSAVKMLVSLKMSYKAAAGEDYKADCPPGNPAPTSNHGPDATEAEEDFVDPWTVQTSSAKGIDYDKLIVRFGSSKIDKELINRIERATGQRPHHFLRRGIFFSHRDMNQVLDAYENKKPFYLYTGRGPSSEAMHVGHLIPFIFTKWLQDVFNVPLVIQMTDDEKYLWKDLTLDQAYSYAVENAKDIIACGFDINKTFIFSDLDYMGMSSGFYKNVVKIQKHVTFNQVKGIFGFTDSDCIGKISFPAIQAAPSFSNSFPQIFRDRTDIQCLIPCAIDQDPYFRMTRDVAPRIGYPKPALLHSTFFPALQGAQTKMSASDPNSSIFLTDTAKQIKTKVNKHAFSGGRDTIEEHRQFGGNCDVDVSFMYLTFFLEDDDKLEQIRKDYTSGAMLTGELKKALIEVLQPLIAEHQARRKEVTDEIVKEFMTPRKLSFDFQ
Turning to B1, the binding entry in assay [1] is “binds weakly”.

B2: full length tryptophanyl-tRNA synthetase (endogenous) (enzyme, UniProt P23381 1-471)
chain: B1 chain
Take B2: in assay [2], the binding result was “no binding”.

B3: T2-WARS (endogenous) (domain or fragment, UniProt P23381 94-471)
chain: SAKGIDYDKLIVRFGSSKIDKELINRIERATGQRPHHFLRRGIFFSHRDMNQVLDAYENKKPFYLYTGRGPSSEAMHVGHLIPFIFTKWLQDVFNVPLVIQMTDDEKYLWKDLTLDQAYSYAVENAKDIIACGFDINKTFIFSDLDYMGMSSGFYKNVVKIQKHVTFNQVKGIFGFTDSDCIGKISFPAIQAAPSFSNSFPQIFRDRTDIQCLIPCAIDQDPYFRMTRDVAPRIGYPKPALLHSTFFPALQGAQTKMSASDPNSSIFLTDTAKQIKTKVNKHAFSGGRDTIEEHRQFGGNCDVDVSFMYLTFFLEDDDKLEQIRKDYTSGAMLTGELKKALIEVLQPLIAEHQARRKEVTDEIVKEFMTPRKLSFDFQ
As for B3, the binding result in assay [2] is given as “no binding”.

B4: recombinant Fc-tagged whole extracellular portion of human VE-Cadherin (Fc fusion, UniProt P33151 48-599)
chain: DWIWNQMHIDEEKNTSLPHHVGKIKSSVSRKNAKYLLKGEYVGKVFRVDAETGDVFAIERLDRENISEYHLTAVIVDKDTGENLETPSSFTIKVHDVNDNWPVFTHRLFNASVPESSAVGTSVISVTAVDADDPTVGDHASVMYQILKGKEYFAIDNSGRIITITKSLDREKQARYEIVVEARDAQGLRGDSGTATVLVTLQDINDNFPFFTQTKYTFVVPEDTRVGTSVGSLFVEDPDEPQNRMTKYSILRGDYQDAFTIETNPAHNEGIIKPMKPLDYEYIQQYSFIVEATDPTIDLRYMSPPAGNRAQVIINITDVDEPPIFQQPFYHFQLKENQKKPLIGTVLAMDPDAARHSIGYSIRRTSDKGQFFRVTKKGDIYNEKELDREVYPWYNLTVEAKELDSTGTPTGKESIVQVHIEVLDENDNAPEFAKPYQPKVCENAVHGQLVLQISAIDKDITPRNVKFKFILNTENNFTLTDNHDNTANITVKYGQFDREHTKVHFLPVVISDNGMPSRTGTSTLTVAVCKCNEQGEFTFCEDMAAQVGVSIQ
On to B4, for which the binding result in assay [3] was “binds”.

B5: VE-cadherin (receptor, UniProt P33151 48-784)
chain: DWIWNQMHIDEEKNTSLPHHVGKIKSSVSRKNAKYLLKGEYVGKVFRVDAETGDVFAIERLDRENISEYHLTAVIVDKDTGENLETPSSFTIKVHDVNDNWPVFTHRLFNASVPESSAVGTSVISVTAVDADDPTVGDHASVMYQILKGKEYFAIDNSGRIITITKSLDREKQARYEIVVEARDAQGLRGDSGTATVLVTLQDINDNFPFFTQTKYTFVVPEDTRVGTSVGSLFVEDPDEPQNRMTKYSILRGDYQDAFTIETNPAHNEGIIKPMKPLDYEYIQQYSFIVEATDPTIDLRYMSPPAGNRAQVIINITDVDEPPIFQQPFYHFQLKENQKKPLIGTVLAMDPDAARHSIGYSIRRTSDKGQFFRVTKKGDIYNEKELDREVYPWYNLTVEAKELDSTGTPTGKESIVQVHIEVLDENDNAPEFAKPYQPKVCENAVHGQLVLQISAIDKDITPRNVKFKFILNTENNFTLTDNHDNTANITVKYGQFDREHTKVHFLPVVISDNGMPSRTGTSTLTVAVCKCNEQGEFTFCEDMAAQVGVSIQAVVAILLCILTITVITLLIFLRRRLRKQARAHGKSVPEIHEQLVTYDEEGGGEMDTTSYDVSVLNSVRRGGAKPPRPALDARPSLYAQVQKPPRHAPGAHGGPGEMAAMIEVKKDEADHDGDGPPYDTLHIYGYEGSESIAESLSSLGTDSSDSDVDYDFLNDWGPRFKMLAELYGSDPREELLY
Consider B5, for which the binding entry in assay [4] is “binds”.

Source of the values: article PMC9300702.
